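Growth conditions: 96-well plates. Treatment: test compound, 48 hours, 5 concentrations. Analysis: linear interpolation between bracketing concentrations; unreached endpoints set to highest concentration. Abbreviation: GI50, concentration required for 50% inhibition of growth.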 The source made the active and inactive calls. No stated cut-off is given here; in the data, active = GI50 up to about 1.1 µM and inactive = higher.
Each compound was assayed on NCI-H322M (assay: NCI-60 cell line screen, 48 h).

SMILES | GI50
CSc1cccc(NC(=O)OC2CCCCCCCCCCC2)c1 | inactive: 24.7 µM
COc1cccc(-c2cc(O)c3cc(OC)c(OC)cc3n2)c1 | inactive: 31.1 µM
COc1ccc(-c2cc(O)c3ccc(F)cc3n2)cc1 | inactive: > 100 µM
OC1(C(O)(c2ccc(-c3ccccc3)cc2)c2ccc(-c3ccccc3)cc2)CCCCC1 | inactive: > 100 µM
CN(C)Cc1ccc(O)c(CN(C)C)n1 | inactive: > 100 µM
c1ccc(-c2cc(-c3cc(-c4ccccn4)[nH]n3)n[nH]2)nc1 | inactive: 50.8 µM
Cc1cc2c(O)nc(N)nc2nc1C | inactive: > 100 µM
O=C(NCCCCCN1CCC2(CCCCC2)CC1)C(C1CCCCC1)C1CCCCC1 | inactive: 3.85 µM
Cc1ccc(Nc2nc3c(s2)C(=O)c2ccccc2C3=O)cc1 | inactive: 1.43 µM
COc1cc2c(cc1OC)C1=CCC(c3ccccc3)[N+]1(C)CC2 (stereo not given) | inactive: > 100 µM
CC(=O)O[C@H]1CCC2[C@@H]3CCC4NC(=O)C(C#N)C[C@]4(C)C3CC[C@@]21C (stereo not given in full) | inactive: > 10 µM
C=C1C(=O)OC2C1C(OC(=O)/C(C)=C/C)CC(O)(CCl)C1C(O)C3OC3(C)C21O (stereo not given) | inactive: > 50 µM
N=C1N=C(N)c2cc3c(cc21)SCCSCCCSCCS3 | inactive: 25.2 µM
COc1c(O)cc2c3c(ccnc13)NC=C2 | inactive: > 100 µM
O=C(O)CCCc1ccc2c(c1)CC1(C2)Cc2ccc(CCCC(=O)O)cc2C1 | inactive: > 100 µM
S=C(NN=C1NCCCN1)Nc1ccccc1 | inactive: > 100 µM
COc1ccc(C2C(Cl)C(=O)N2n2cnc3ccccc3c2=O)cc1OC (stereo not given) | inactive: > 100 µM
COC(=O)c1c(C)cc(OC)c(C/C=C(\C)CCCc2coc(C=C(C)C)c2)c1OC | inactive: > 100 µM
C[C@]12CC[C@H](OC(=O)Cc3ccc(N(CCCl)CCCl)cc3)CC1CC[C@@H]1C2CC[C@]2(C)NC(=O)CCC12 (stereo not given in full) | inactive: 16.2 µM
CCOC(=O)c1cn(CC)c2ccc3c(c2c1=O)S(=O)(=O)C=C3 | inactive: > 100 µM
C=CCn1c(-c2ccc([N+](=O)[O-])cc2)csc1=N | inactive: > 100 µM
O=C(NN1C(=O)CS(=O)(=O)C1c1cccc(F)c1)c1ccncc1 (stereo not given) | inactive: > 100 µM
Cc1ccc(NC(=O)NC(=O)c2ccc([N+](=O)[O-])cc2[N+](=O)[O-])cc1Oc1ncc(Cl)cn1 | active: 0.542 µM
O=c1[nH]c2ccc(C(F)(F)F)cc2nc1Cc1ccccc1 | inactive: > 100 µM

SMILES | GI50
COc1ccc2c(c1)CCc1cnn(C3OC(COC(C)=O)C(OC(C)=O)C(OC(C)=O)C3OC(C)=O)c1-2 (stereo not given) | inactive: > 100 µM
CCOc1ccccc1/N=N/C1C(=O)N(C(=O)CC(=O)Nc2ccccc2OC)N=C1C (stereo not given) | inactive: 51.3 µM
O=C(Sc1c(-c2ccccc2)c(=O)n(-c2ccccc2)c(=S)n1-c1ccccc1)c1ccco1 | inactive: > 100 µM
NCCNc1cccc2ccccc12 | inactive: > 100 µM
CC(=O)OC12CCCCC1C1(CCCC1)NC2=O (stereo not given) | inactive: > 100 µM
CC(C)OP(=O)(OC(C)C)c1ncn(-c2ccc([N+](=O)[O-])cc2)n1 | inactive: > 100 µM
C=C(Cl)C(C)(Cl)CCC(Cl)C(C)(C)Cl (stereo not given) | inactive: > 100 µM
N#CC(C(=O)C(=O)Nc1ccc(Cl)cc1)c1ccccc1 (stereo not given) | inactive: > 100 µM
CC(C)NC(=O)CCN(C(=O)O)S(=O)(=O)c1ccc(NC(=O)c2ccccc2)cc1 | inactive: > 100 µM
CC1C2CC(CC2=O)C1(C)C (stereo not given) | inactive: > 100 µM
Cc1ccc(Nc2nc(C)c(C(/C=C/c3ccc4c(c3)OCO4)=N/Nc3ccc([N+](=O)[O-])cc3[N+](=O)[O-])s2)c([N+](=O)[O-])c1 | inactive: 62.8 µM
C[N+]1(C)CCOC(O)(c2ccccc2)C1 (stereo not given) | inactive: > 100 µM
Cc1cccc2c1c(=O)c1c(O)cc3c(c1n2C)C=CC(C)(C)O3 | inactive: > 100 µM
CCOC(=O)c1sc2c(c1OC(=O)c1ccc(Cl)cc1Cl)c(=O)n(-c1ccccc1)c(=S)n2-c1ccccc1 | inactive: 13.8 µM
NC1=C(O)c2cccc3cccc(c23)C1=O | inactive: > 100 µM
CC(C)(Cl)C(Cl)CC/C(CBr)=C(\Cl)CCl (stereo not given) | inactive: 15.9 µM
C=CN1C(=O)OC[C@@H]1c1ccccc1 | inactive: > 100 µM
COc1ccccc1N1C(=O)CSC1c1c[nH]c2ccccc12 (stereo not given) | inactive: > 100 µM
CN1CCN(c2nc3c(c(=O)n(C)c(=O)n3C)n2C)CC1 | inactive: > 100 µM
Clc1ccc(-c2nn3c(CCCCCCCCc4nnc5sc(-c6ccc(Cl)cc6)nn45)nnc3s2)cc1 | inactive: 8.57 µM
Clc1ccccc1C(n1cc(Br)cn1)n1cc(Br)cn1 | inactive: 3.91 µM
COc1ccc2c(-c3csc(-c4c[nH]c5ccc(Br)cc45)n3)c[nH]c2c1 | inactive: 70.8 µM
O=C(CCc1nnc(S)[nH]1)NC12CC3CC(CC(C3)C1)C2 | inactive: > 100 µM
Cc1cn(C2OC(CO[Si](C)(C)C(C)(C)C)C(N(C)O[Si](C)(C)C(C)(C)C)C2[Se]c2ccccc2)c(=O)[nH]c1=O (stereo not given) | inactive: 10.6 µM

SMILES | GI50
c1ccc2c(c1)nc1n2CCSC1 | inactive: > 100 µM
Oc1nc2c(c(-c3cccc(Cl)c3)n1)COC/C2=C\c1cccc(Cl)c1 | inactive: > 100 µM
O=C(CC(=O)C1CCOC1=O)C(=O)Nc1ccc(Cl)cc1 (stereo not given) | inactive: > 100 µM
CCOC(=O)NC(=O)c1cn(CCN2CCNCC2)c(=O)[nH]c1=O | inactive: > 100 µM
COc1cc([C@@H]2c3cc4c(cc3[C@@H](NC(=O)c3ccccc3)C3COC(=O)[C@@H]32)OCO4)cc(OC)c1O (stereo not given in full) | inactive: 12.5 µM
c1ccc(C2CC(NC3CCCCC3)=Nc3ccccc3N2)cc1 (stereo not given) | inactive: 49.8 µM
Cc1ccc(NC(=O)CC(=O)n2nc(-c3ccccc3)c(/N=N/c3ccc(Cl)cc3)c2-c2ccccc2)cc1 | inactive: > 100 µM
COc1c(CCl)cc(-c2cc(=O)c3ccccc3s2)cc1CCl | inactive: > 100 µM
COc1cc(C(c2ccc3c(c2)OCO3)C2SCCCS2)cc(OC)c1OC (stereo not given) | inactive: 3.47 µM
N[C@H](C(=O)O)[C@H]1ON=C(Cl)[C@@H]1O | inactive: 8.65 µM
N#CC(C#N)[C@@H]1CCC=C(Sc2ccccc2)[C@H]1Sc1ccccc1 | inactive: 6.15 µM
CCOC(=O)/C=C/c1c(C)[nH]c(=O)[nH]c1=O | inactive: > 250 µM
N#CN1CC[C@@H]2CC3(CCC2C1)OCCO3 (stereo not given in full) | inactive: > 100 µM
O=C(/C=C/c1ccccc1Cl)NC1C=Nc2ccc([N+](=O)[O-])cc2NC1 (stereo not given) | inactive: > 100 µM
Cc1[nH]c(=O)[nH]c(=O)c1/C=C/C(=O)NC(CO)C[S+]([O-])Cc1ccccc1 (stereo not given) | inactive: > 276 µM
CCOc1ccc(NC(=O)C2=C(C)NC(C)=C(C(=O)Nc3ccc(OCC)cc3)C2c2ccccc2)cc1 | inactive: 47.3 µM
C1CN(C23OC4(N5CCOCC5)C5C6CC(C7C6C4C72)C53)CCO1 (stereo not given) | inactive: > 100 µM
COC(=O)C1=C(C(=O)OC)N(c2ccncc2)C(c2ccco2)=CC1c1ccccc1[N+](=O)[O-] (stereo not given) | inactive: 8.79 µM
CC1=C(C(=O)NCc2ccccc2)C(c2ccccc2O)C(C(=O)NCc2ccccc2)=C(C)N1 | inactive: 18.3 µM
O=C(O)C(CS)Nc1c2ccccc2nc2ccccc12 (stereo not given) | inactive: 80.7 µM
O=S(=O)(/N=S(/Nc1ccccc1)C(Cl)Cl)c1ccccc1 (stereo not given) | inactive: > 100 µM
O=C1C2C3C=C4c5ccccc5N(c5ccccc5)C4(C2C(=O)N1c1ccccc1)C1C(=O)N(c2ccccc2)C(=O)C31 (stereo not given) | inactive: > 100 µM
COC(=O)C1CCC(=O)N1CN(C(C)=O)c1ccccc1 (stereo not given) | inactive: > 100 µM
O=C1NC(=O)C(C(c2ccc([N+](=O)[O-])cc2)C2C(=O)NC(=O)NC2=O)C(=O)N1 | inactive: > 100 µM

SMILES | GI50
Fc1ccc(C(OCCN2CCC3CCC(C2)N3C/C=C/c2cccs2)c2ccc(F)cc2)cc1 (stereo not given) | inactive: 12.6 µM
O=C(O)C1C(C(=O)O)C2C(=O)C=CC1N2Cc1ccccc1 (stereo not given) | inactive: 11.5 µM
COc1cc(OC)cc(C(=O)NC2=C(Cl)C(=O)c3ccccc3C2=O)c1 | inactive: 7.66 µM
CCN(CC)CCNC(=O)c1cc2cc(NC(=O)c3cc4cc([N+](=O)[O-])ccc4[nH]3)ccc2[nH]1 | inactive: 5.37 µM
Cc1ccc(S(=O)(=O)c2c(O)c3ccc(O)c(C)c3oc2=O)cc1 | inactive: > 100 µM
O=S1(=O)C[C@@H](NCc2ccccc2)[C@H](NCc2ccccc2)C1 | inactive: > 100 µM
Cc1cc(N(CC(C)Br)CC(C)Br)ccc1/N=N/c1ccccc1C(=O)O (stereo not given) | inactive: 2.45 µM
CN1CCN(C)C12C=c1ccccc1=CC21CC1 | inactive: 61.5 µM
CCOC(=O)N(NC(=O)NC(C)C)c1ccccc1 | inactive: > 100 µM
CN(C)CC1=Nc2cccc3cccc(c23)N1 | inactive: > 100 µM
COc1ccc(-n2c(CCC(=O)O)nc3c2C(=O)c2ccccc2C3=O)cc1 | inactive: > 100 µM
Nc1ncnc2c1cnn2Cc1ccc(Cl)cc1 | inactive: > 100 µM
COc1cccc(C(NC2=NCCC=N2)c2cc3c(cc2O)OCO3)c1O (stereo not given) | inactive: 43 µM
O=C(/N=c1/[nH]/c(=N/C(=O)c2ccccc2)ss1)c1ccccc1 | inactive: 37 µM
COc1ccc(-c2cc(N3CCN(c4ccccc4)CC3)c(C#N)c(=O)o2)cc1 | inactive: 59.8 µM
O=[N+]([O-])c1ccc2nnnn2c1 | inactive: 27 µM
CCOC1=C2C(C)(CCC3[C@@]4(C)C=CC(=O)C(C)(C)C4CC(O)[C@@]23C)C(c2ccoc2)C1=O (stereo not given in full) | inactive: 16 µM
Nc1ccc(-c2nc3ccccc3s2)cc1I | inactive: 69.7 µM
CSc1ccc2c(cc1=O)[C@@H](NC(=O)c1cccc([N+](=O)[O-])c1)CCc1cc(O)c(O)c(O)c1-2 | inactive: 33.5 µM
Oc1[nH]c(Nc2ccc(Cl)c(C(F)(F)F)c2)nc2ncnc1-2 | inactive: 38.4 µM
O=C(O)CSc1nc2ccccc2[nH]1 | inactive: > 100 µM
CN(C)CCn1c(=O)c2ccc(NCCNCCO)c3c(=O)c4cc(O)ccc4n(c1=O)c23 | active: 0.826 µM
O=Cc1coc2ccccc2c1=O | inactive: > 100 µM

Source: ChEMBL document CHEMBL1201862, “PubChem BioAssay data set” (2004)
